Measurements as given in US11178870B2 (priority 2017, dated 2021).

Assays:
Format in all cases: in vivo
Botrytis cinerea = test: Test Example B: Gray mold on tomato; settings: for Test B control value: Gray mold on tomato; for Test B control value (gray mold on tomato): class of control value, Table 7; for control value, Test B (gray mold on tomato): Table 7, Test B
[1] = system: Blumeria graminis f. sp. hordei; test: Test Example D: Powdery mildew on barley; settings: for Test D control value: Powdery mildew on barley; for Test D control value (powdery mildew on barley): class of control value, Table 7; for control value, Test D (powdery mildew on barley): Table 7, Test D
Puccinia recondita = test: Test Example E: Brown rust on wheat; settings: for Test E control value: Brown rust on wheat; for Test E control value (brown rust on wheat): class of control value, Table 7; for control value, Test E (brown rust on wheat): Table 7, Test E
Alternaia brassicicola = test: Test Example C: Alternaria sooty spot on cabbage; settings: for Test C control value: Alternaria sooty spot on cabbage; for Test C control value (Alternaria sooty spot on cabbage): class of control value, Table 7; for control value, Test C (Alternaria sooty spot on cabbage): Table 7, Test C
Plasmopara viticola = test: Test Example G: Downy mildew on vine; settings: for Test G control value: Downy mildew on vine, 250 ppm sprayed, 7 to 10 days after inoculation; for Test G control value / Test G control value (downy mildew on vine): 2.5 ml/pot; for Test G control value (downy mildew on vine): 250 ppm spray, investigated 7 to 10 days after inoculation; for control value, Test G (downy mildew on vine): 250 ppm sprayed (2.5 ml/pot) before inoculation, assessed 7 to 10 days after inoculation

In the case of `CCn1c(-c2c(F)cccc2F)c(-c2cnco2)cc(Cl)c1=O` [Compound 42], the “Test B control value” (Botrytis cinerea) is reported as “H (H shows the control value more than 50%)”, the “Test D control value” [1] is reported as “L (L shows the control value of 50% or less)” and the “Test E control value” (Puccinia recondita) is reported as “H (H shows the control value more than 50%)”. The “Test C control value” (Alternaia brassicicola) was “H (H shows the control value more than 50%)” and the “Test G control value” (Plasmopara viticola) was “L (L shows the control value of 50% or less)”.
In the case of `Cc1cnn(-c2cc(Cl)c(=O)n(C)c2-c2ccccc2F)c1Cl` [Compound 488], the “Test B control value (gray mold on tomato)” value (Botrytis cinerea) is reported as “H (H shows the control value more than 50%)”, the “Test D control value (powdery mildew on barley)” value [1] is reported as “H (H shows the control value more than 50%)” and the “Test E control value (brown rust on wheat)” value (Puccinia recondita) is reported as “H (H shows the control value more than 50%)”. The “Test C control value (Alternaria sooty spot on cabbage)” value (Alternaia brassicicola) was “H (H shows the control value more than 50%)” and the “Test G control value (downy mildew on vine)” value (Plasmopara viticola) was “H (H shows the control value more than 50%)”.
In the case of `CCn1c(-c2ccccc2C#N)c(-n2ncc(C)c2Cl)cc(Br)c1=O` [Compound 472], the “Test B control value (gray mold on tomato)” value (Botrytis cinerea) is reported as “H (H shows the control value more than 50%)”, the “Test D control value (powdery mildew on barley)” value [1] is reported as “L (L shows the control value of 50% or less)” and the “Test E control value (brown rust on wheat)” value (Puccinia recondita) is reported as “H (H shows the control value more than 50%)”. For the same molecule, the “Test C control value (Alternaria sooty spot on cabbage)” value (Alternaia brassicicola) was “H (H shows the control value more than 50%)” and the “Test G control value (downy mildew on vine)” value (Plasmopara viticola) was “H (H shows the control value more than 50%)”.
In the case of `CCn1c(-c2ccccc2F)c(-n2cc(Cl)cn2)cc(Cl)c1=O` [Compound 220], the “control value, Test B (gray mold on tomato)” value (“control value, Test B” below) (Botrytis cinerea) is reported as “H (H shows the control value more than 50%)”, the “control value, Test D (powdery mildew on barley)” value (from here on “control value, Test D”) [1] is reported as “H (H shows the control value more than 50%)” and the “control value, Test E (brown rust on wheat)” value (“control value, Test E” below) (Puccinia recondita) is reported as “H (H shows the control value more than 50%)”. The “control value, Test C (Alternaria sooty spot on cabbage)” value (from here on “control value, Test C”) (Alternaia brassicicola) was “H (H shows the control value more than 50%)” and the “control value, Test G (downy mildew on vine)” value (“control value, Test G” below) (Plasmopara viticola) was “L (L shows the control value of 50% or less)”.
In the case of `O=c1ccc(-n2cc(F)cn2)c(-c2ccc(F)cc2Br)n1CC(F)F` [Compound 447], the “Test B control value (gray mold on tomato)” value (Botrytis cinerea) is reported as “H (H shows the control value more than 50%)”, the “Test D control value (powdery mildew on barley)” value [1] is reported as “H (H shows the control value more than 50%)” and the “Test E control value (brown rust on wheat)” value (Puccinia recondita) is reported as “H (H shows the control value more than 50%)”. The “Test C control value (Alternaria sooty spot on cabbage)” value (Alternaia brassicicola) was “H (H shows the control value more than 50%)” and the “Test G control value (downy mildew on vine)” value (Plasmopara viticola) was “L (L shows the control value of 50% or less)”.
With `Cc1cnn(-c2cc(Br)c(=O)n(CC(F)F)c2-c2ccc(F)cc2Cl)c1Cl` [Compound 345] the “control value, Test B” value (Botrytis cinerea) was “H (H shows the control value more than 50%)”, the “control value, Test D” value [1] was “H (H shows the control value more than 50%)” and the “control value, Test E” value (Puccinia recondita) was “H (H shows the control value more than 50%)”. For the same molecule, the “control value, Test C” value (Alternaia brassicicola) was “H (H shows the control value more than 50%)” and the “control value, Test G” value (Plasmopara viticola) was “H (H shows the control value more than 50%)”.
`Cn1c(-c2ccc(F)cc2Cl)c(-n2cc(F)cn2)cc(Br)c1=O` [Compound 483] was tested, and the “Test B control value (gray mold on tomato)” value (Botrytis cinerea) was “H (H shows the control value more than 50%)”, the “Test D control value (powdery mildew on barley)” value [1] was “H (H shows the control value more than 50%)” and the “Test E control value (brown rust on wheat)” value (Puccinia recondita) was “H (H shows the control value more than 50%)”. The “Test C control value (Alternaria sooty spot on cabbage)” value (Alternaia brassicicola) was “H (H shows the control value more than 50%)” and the “Test G control value (downy mildew on vine)” value (Plasmopara viticola) was “L (L shows the control value of 50% or less)”.
With `Cn1c(-c2c(F)cccc2F)c(-c2cccnc2Cl)cc(Cl)c1=O` [Compound 105] the “Test B control value” (Botrytis cinerea) was “H (H shows the control value more than 50%)”, the “Test D control value” [1] was “L (L shows the control value of 50% or less)” and the “Test E control value” (Puccinia recondita) was “H (H shows the control value more than 50%)”. The “Test C control value” (Alternaia brassicicola) was “H (H shows the control value more than 50%)” and the “Test G control value” (Plasmopara viticola) was “L (L shows the control value of 50% or less)”.
`COc1ccc(-c2c(-n3cc(Cl)cn3)cc(Br)c(=O)n2CC(F)F)c(Cl)c1` [Compound 240] was tested, and the “control value, Test B” value (Botrytis cinerea) was “H (H shows the control value more than 50%)”, the “control value, Test D” value [1] was “H (H shows the control value more than 50%)” and the “control value, Test E” value (Puccinia recondita) was “H (H shows the control value more than 50%)”. The “control value, Test C” value (Alternaia brassicicola) was “H (H shows the control value more than 50%)” and the “control value, Test G” value (Plasmopara viticola) was “L (L shows the control value of 50% or less)”.
For `CCn1c(-c2c(F)cccc2F)c(-c2sccc2C)cc(Br)c1=O` [Compound 389], the “Test B control value (gray mold on tomato)” value (Botrytis cinerea) was “H (H shows the control value more than 50%)”, the “Test D control value (powdery mildew on barley)” value [1] was “H (H shows the control value more than 50%)” and the “Test E control value (brown rust on wheat)” value (Puccinia recondita) was “H (H shows the control value more than 50%)”. For the same molecule, the “Test C control value (Alternaria sooty spot on cabbage)” value (Alternaia brassicicola) was “H (H shows the control value more than 50%)” and the “Test G control value (downy mildew on vine)” value (Plasmopara viticola) was “L (L shows the control value of 50% or less)”.
With `CCn1c(-c2c(F)cccc2F)c(-c2ncc(OC)o2)cc(Cl)c1=O` [Compound 162] the “Test B control value” (Botrytis cinerea) was “L (L shows the control value of 50% or less)”, the “Test D control value” [1] was “L (L shows the control value of 50% or less)” and the “Test E control value” (Puccinia recondita) was “L (L shows the control value of 50% or less)”. The “Test C control value” (Alternaia brassicicola) was “L (L shows the control value of 50% or less)” and the “Test G control value” (Plasmopara viticola) was “H (H shows the control value more than 50%)”.
For `O=c1c(Br)cc(-n2cc(F)cn2)c(-c2ccc(F)cc2Br)n1CC(F)F` [Compound 449], the “Test B control value (gray mold on tomato)” value (Botrytis cinerea) was “H (H shows the control value more than 50%)”, the “Test D control value (powdery mildew on barley)” value [1] was “H (H shows the control value more than 50%)” and the “Test E control value (brown rust on wheat)” value (Puccinia recondita) was “H (H shows the control value more than 50%)”. The “Test C control value (Alternaria sooty spot on cabbage)” value (Alternaia brassicicola) was “H (H shows the control value more than 50%)” and the “Test G control value (downy mildew on vine)” value (Plasmopara viticola) was “L (L shows the control value of 50% or less)”.
For `CCn1c(-c2c(F)cccc2F)c(-c2sc(Br)cc2Cl)cc(Br)c1=O` [Compound 398], the “Test B control value (gray mold on tomato)” value (Botrytis cinerea) was “H (H shows the control value more than 50%)”, the “Test D control value (powdery mildew on barley)” value [1] was “L (L shows the control value of 50% or less)” and the “Test E control value (brown rust on wheat)” value (Puccinia recondita) was “H (H shows the control value more than 50%)”. The “Test C control value (Alternaria sooty spot on cabbage)” value (Alternaia brassicicola) was “H (H shows the control value more than 50%)” and the “Test G control value (downy mildew on vine)” value (Plasmopara viticola) was “L (L shows the control value of 50% or less)”.
With `CCn1c(-c2c(F)cc(F)cc2F)c(-n2cc(Br)c(C)n2)cc(Br)c1=O` [Compound 147] the “Test B control value” (Botrytis cinerea) was “L (L shows the control value of 50% or less)”, the “Test D control value” [1] was “L (L shows the control value of 50% or less)” and the “Test E control value” (Puccinia recondita) was “L (L shows the control value of 50% or less)”. The “Test C control value” (Alternaia brassicicola) was “H (H shows the control value more than 50%)” and the “Test G control value” (Plasmopara viticola) was “L (L shows the control value of 50% or less)”.
For `O=c1ccc(-c2ccsc2Br)c(-c2c(F)cccc2F)n1CC(F)F` [Compound 323], the “control value, Test B” value (Botrytis cinerea) was “H (H shows the control value more than 50%)”, the “control value, Test D” value [1] was “H (H shows the control value more than 50%)” and the “control value, Test E” value (Puccinia recondita) was “H (H shows the control value more than 50%)”. For the same molecule, the “control value, Test C” value (Alternaia brassicicola) was “H (H shows the control value more than 50%)” and the “control value, Test G” value (Plasmopara viticola) was “H (H shows the control value more than 50%)”.
